Measured values published in US3954730A, “6-(Substituted-cycloalkylcarboxamide) penicillanic acids” (Bayer Aktiengesellschaft, priority 1973, dated 1976).

Tests used:
[1] = system: Staphylococcus aureus 133; experiment: Animal experiment with white mice infected intraperitoneally: ED50 after 24 hours
Experimental: (§1) The white, mice of strain CF1 were infected intraperitoneally with the particular species of bacteria indicated.
(§2) Animal experiment with white mice:
(§3) Determination of the ED50 after 24 hours.
(§4) Treatment: l administration 30 minutes after infection
(§5) The ED50 is the dose at which 50% of the infected animals still survive after 24 hours.

[2] = system: E.coli C 165; experiment: as above; conditions: subcutaneous, 1 × administration 30 minutes after infection
Experimental: as §1, §2, §3, §4, §5

SMILES: CC1(C)S[C@@H]2[C@H](NC(=O)C3(C)CC3(Cl)Cl)C(=O)N2[C@H]1C(=O)O (stereo partly drawn) [Example 1, sodium salt of 6-(2,2-dichloro-1-methyl-cyclopropylcarboxamido)-penicillanic acid]
- ED50 (dose at which 50% of the infected animals still survive after 24 hours) ([1]; oral, 1 administration 30 minutes after infection): 10,000 units per kg
- ED50 (dose at which 50% of the infected animals still survive after 24 hours) ([1]; subcutaneous, 1 × administration 30 minutes after infection): 5,000 units per kg
- ED50 (dose at which 50% of the infected animals still survive after 24 hours) [2]: 200,000 units per kg

Where a name gives a salt, the structure may show the parent alone.
